# Results taken from the supplement of paper PMC3334620.
# Over roughly 33,000 sequences, “E-score (-0.5 to 0.5)” has its median near -0.035; the highest 2% begin near 0.35. Some of the results follow.
# Biological target: T1, Pdr3 (UniProt P33200)
# T1 sequence: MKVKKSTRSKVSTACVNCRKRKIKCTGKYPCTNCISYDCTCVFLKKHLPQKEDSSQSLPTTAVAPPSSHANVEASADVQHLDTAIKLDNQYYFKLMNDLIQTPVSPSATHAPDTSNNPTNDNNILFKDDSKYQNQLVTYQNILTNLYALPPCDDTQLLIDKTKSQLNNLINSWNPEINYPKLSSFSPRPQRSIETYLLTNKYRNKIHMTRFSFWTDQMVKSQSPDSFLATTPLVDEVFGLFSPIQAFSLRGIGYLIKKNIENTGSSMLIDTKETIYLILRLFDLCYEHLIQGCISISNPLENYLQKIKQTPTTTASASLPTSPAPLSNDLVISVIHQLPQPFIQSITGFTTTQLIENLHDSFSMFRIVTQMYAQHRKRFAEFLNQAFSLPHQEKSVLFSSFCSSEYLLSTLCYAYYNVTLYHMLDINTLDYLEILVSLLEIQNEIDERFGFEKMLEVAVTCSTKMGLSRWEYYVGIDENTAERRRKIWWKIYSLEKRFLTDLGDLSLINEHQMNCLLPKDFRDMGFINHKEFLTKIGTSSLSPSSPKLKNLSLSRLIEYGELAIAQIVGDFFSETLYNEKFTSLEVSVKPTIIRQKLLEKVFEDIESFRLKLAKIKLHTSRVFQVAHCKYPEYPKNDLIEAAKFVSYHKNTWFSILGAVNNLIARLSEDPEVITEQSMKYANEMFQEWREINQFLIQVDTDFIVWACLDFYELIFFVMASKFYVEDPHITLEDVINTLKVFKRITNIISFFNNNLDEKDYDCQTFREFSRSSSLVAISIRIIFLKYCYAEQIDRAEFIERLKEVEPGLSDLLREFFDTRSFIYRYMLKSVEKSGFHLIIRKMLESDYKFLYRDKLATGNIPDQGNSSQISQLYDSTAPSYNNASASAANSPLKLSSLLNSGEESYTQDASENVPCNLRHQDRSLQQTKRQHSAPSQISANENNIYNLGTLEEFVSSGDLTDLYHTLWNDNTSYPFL
# Assay: PBM E-score (8-mer binding enrichment) (E-score (-0.5 to 0.5)); higher = stronger / more preferred TF binding; most listed sequences are background and not binding sites
# Conditions: protein concentration: 200 nM; construct: GST-full length
# How it was run: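 Using PURExpress in vitro transcription/translation, GST-tagged yeast transcription factors were made in full-length or DNA-binding-domain form. These were applied at about 100-200 nM to double-stranded universal all-10-mer Agilent arrays, and bound protein was detected with fluorescent anti-GST. Scans were normalised with masliner before the Universal PBM Analysis Suite assigned E-scores to ungapped eight-base words pooled with their reverse complements.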
row,Sequence,PBM E-score
1,ACTGCTCA,-0.0736
2,GGTCCTTA,0.0165
3,AGATTCCG,0.453
4,GAAAACCA,-0.103
5,ATCGCATA,-0.00724
6,ATGGGATA,-0.116
7,TGACTCAA,-0.25
8,ATCCAAAT,-0.121
9,AGTTCCGC,0.467
10,ACGAGGAT,-0.307
11,CTCCTTAC,-0.269
12,AGCGTCCT,-0.285
13,GTTTTTCA,0.0118
14,ACATTAAC,-0.0279
15,GTCCTCAC,-0.0494
16,CTCGTCTA,-0.224
17,AAGTACAC,-0.0495
18,ATAGGCCC,-0.105
19,AAGCAATA,-0.0544
20,AACGGCTA,0.013
21,GGCAGAAA,0.174
22,CGCTAGTC,-0.336
23,ATTCAAGA,-0.0769
24,GACGAACA,0.151
25,CAAAAGGA,-0.171

row,Sequence,PBM E-score
1,CGCACATA,-0.119
2,AGAGAGCT,-0.335
3,CCAGGCCG,0.0672
4,AGTTGGGG,0.0491
5,CAACGTCG,-0.0264
6,GACGCGGA,0.228
7,ATGTGCTC,0.0809
8,ATCCCATG,0.0213
9,ATACACTC,0.0426
10,CTCAAGGC,-0.0779
11,GTGAGGGA,-0.118
12,TAAGCACA,0.108
13,GTCCTCAA,-0.1
14,AATTCTGA,-0.0763
15,CGGGTCCC,0.227
16,AGGAGAAC,-0.0499
17,CGTTGTAC,-0.129
18,ATGGAGTA,0.0718
19,ATCCAGCA,-0.318
20,CCGCATAC,0.19
21,GGTCAGCA,-0.0188
22,GCGTATAC,-0.156
23,AAGCTCGA,0.103
24,ACTGTTAC,-0.209
25,CAGTGAAA,0.0387

row,Sequence,PBM E-score
1,ATGTCTGA,-0.106
2,ATGTCGTG,-0.211
3,AGTTATAA,-0.262
4,CTAATTCA,-0.147
5,CGCATGTA,-0.137
6,CGTACAAG,-0.101
7,GGTTTGGA,-0.0505
8,CATATTAA,-0.0147
9,ACAGCCGG,0.299
10,ACCAAGCA,-0.112
11,AGTTATGC,-0.0653
12,ACCGCCTA,-0.0211
13,ACAGCACC,-0.0246
14,CCATTTTC,0.0618
15,ATTCGCGA,0.0307
16,CCCCCCCG,-0.317
17,AAAAGCCT,-0.306
18,ATAGTCAT,-0.0921
19,GAAGTCAA,-0.0201
20,AGCCTTTC,-0.167
21,ATTCAACA,0.0845
22,CCTTTAAC,0.0603
23,AATCCTTA,-0.292
24,CACGCTCC,-0.0847
25,CAGATATA,0.0615

row,Sequence,PBM E-score
1,CGAATCCG,0.249
2,AGATCGGA,0.394
3,CCTGATTA,0.0294
4,AATTGTCC,0.0741
5,ACAGTACA,-0.00617
6,ACACAAAG,-0.173
7,CAAGTATG,-0.165
8,TCGAGCGA,0.184
9,CCGCACAC,0.00515
10,CAAATCAA,-0.0555
11,AGCCTCCC,-0.0862
12,ATACACTA,-0.082
13,ATGTGGCG,0.0952
14,GCCCTCGC,-0.0501
15,GTGTATAA,-0.315
16,CCCGGGCC,0.397
17,CCGACTGA,0.0283
18,CACACTCA,0.0355
19,AATAGGGT,-0.108
20,CCGACGCC,0.224
21,CAAGGACG,-0.11
22,ACCTAACA,0.0831
23,GCTGCACA,-0.195
24,ACTTGAGG,-0.168
25,GAAACGAC,-0.0196

row,Sequence,PBM E-score
1,AAAAAAAC,-0.109
2,ACCCCGTA,0.006
3,CCTTTTTC,0.0815
4,GTAGTTTA,-0.0103
5,GAATAGCA,0.0671
6,AGACAGTG,-0.117
7,AGACTTTA,-0.227
8,GAAATCTA,0.0572
9,AGCACAGA,-0.0342
10,ATGTCTGG,0.0897
11,AGAATTCT,0.0674
12,CCTGTCGC,-0.0933
13,AGGGAATG,-0.0936
14,GTGACAGA,-0.117
15,ACTGAACG,-0.0935
16,AACAGTAC,-0.107
17,CTTGAGGC,-0.11
18,ATTGTACA,-0.16
19,TTATGCAA,-0.179
20,AAGTACGC,-0.238
21,ACGCTGGC,-0.0917
22,GACTGTGC,-0.211
23,CCCCTGCG,-0.0867
24,CCGACCCA,0.221
25,CGCCGGCA,0.339

row,Sequence,PBM E-score
1,CAAAGGCC,-0.0787
2,ACGGGCCA,0.117
3,AAATCTTC,0.0515
4,GAATTCCA,0.142
5,ACCTGCCT,-0.184
6,ATACGGAA,0.439
7,CTAGATAG,-0.17
8,CCGATCGA,0.0662
9,AGTCACGC,-0.0659
10,TCCCAGGA,-0.222
11,GATAGAAA,-0.133
12,TGGCCCCA,-0.151
13,ACTTGGGC,-0.0423
14,CCTAAGAG,-0.171
15,AGAGAACC,-0.0968
16,ATTCCCGG,0.393
17,AGGTAGAG,-0.253
18,CGGCAGTA,0.143
19,ACAGCGAC,-0.245
20,AAGCTTGC,-0.154
21,GGACGCTA,-0.104
22,CCGTAGAA,-0.0248
23,ACCGCGAC,0.082
24,GGCCCATA,-0.00801
25,TTAAGAAA,-0.126

row,Sequence,PBM E-score
1,AAAAATAA,-0.0349
2,CACGTGGG,-0.147
3,AGAAAATA,0.0181
4,CCCGGTCC,0.194
5,GCTCAAGC,-0.213
6,AAGCCCTA,-0.27
7,CTTAACAC,-0.0828
8,CCCTGCAA,-0.127
9,ACGGGAGT,0.209
10,CACCTCGC,0.0461
11,AGTTATTG,-0.07
12,CAAGCGTA,-0.34
13,GTTATCGA,0.146
14,ACTTAAAA,-0.127
15,ATGCGCGC,0.275
16,ACGGTTGC,-0.0793
17,AAGGGGCC,-0.00267
18,CTGGCCAA,0.0275
19,CGGCTATC,0.151
20,CACATTCC,0.16
21,CCCATAGG,-0.0362
22,GTATCAAA,-0.107
